Several values for one entry are separate records, joined by “and”; a condition that tells them apart may be missing. Equal values may be shown once. Inconclusive results, whose numbers are uncertain, are shown with a selection of clear calls. Potencies of inconclusive entries are doubtful fits and often do not repeat. Activity calls are given as the source filed them. The call rests on the fitted dose curve; in most records, active means well fitted curve in the direction sought with a large enough effect; inconclusive means small, poorly fitted or top-dose-only effect, or another doubt; inactive means no such curve, though single readings can be large; an effect the other way counts as inactive or inconclusive.
Tests used:
[1] = qHTS for Inhibitors of Plasmodium falciparum (DD2) proliferation (AID 504314);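 on activity, negative = inhibition: parasite DNA measured by SYBR Green fluorescence after red cell lysis; plate controls were DMSO vehicle for no effect and artemisinin wells for full effect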; conditions: P. falciparum Dd2 in erythrocytes, SYBR Green growth, 72 h; activity, negative = inhibition: at 6.11 µM (top of the series)
Outline: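 Parasite proliferation measured as SYBR Green signal from Plasmodium DNA, mature erythrocytes lacking DNA. 72 h incubation, 37C; activity scaled between vehicle and 0.29 uM artemisinin, with correction from vehicle-only plates.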

[2] = qHTS for Inhibitors of Plasmodium falciparum (GB4) proliferation (AID 504315); further: nearly all actives have a fitted effect of over 50% in size; conditions: P. falciparum GB4 in erythrocytes, SYBR Green DNA, 72 h; activity change, negative = inhibition: at 6.7 µM (top of the series)
Outline: (§1)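 Parasite growth measured as SYBR Green DNA fluorescence (ex 485, em 535 nm) after overnight lysis following 72 h culture at 37 °C, 0.3% parasitemia, 2.5% hematocrit. Values normalized against DMSO and 0.29 uM artemisinin controls, with plate-stack correction.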

[3] = qHTS for Inhibitors of Plasmodium falciparum (7G8) proliferation (AID 504316); further: nearly all actives have a fitted effect of over 65% in size; conditions: P. falciparum 7G8 in erythrocytes, SYBR Green DNA, 72 h; activity change, negative = inhibition: at 6.7 µM (top of the series)
Outline: as §1

[4] = qHTS for Inhibitors of Plasmodium falciparum (CP250) proliferation (AID 504320)
Outline: as §1
Potency means the concentration at half of the fitted maximal effect; tags describe the fitted curve by direction and shape.

**Q.** With `COc1ccc(-c2nc3c(c4c2C[C@H](c2ccccc2)OC4)CN(C(=O)c2cc(I)ccc2F)CC3)c(C)c1` as the compound, how does the Potency [1] read?
**A.** inconclusive: 1.5 µM [inhibitor, single point]

**Q.** And the activity, negative = inhibition [1]?
**A.** inactive: -3.98% [at 1.12 µM]

**Q.** And the Potency [2]?
**A.** inconclusive: 1.9 µM [inhibitor, single point] and inconclusive: 3.38 µM [inhibitor, single point]

**Q.** And the Potency [3]?
**A.** active: 1.9 µM

**Q.** And the Potency [4]?
**A.** inconclusive: 1.69 µM [inhibitor, single point]

**Q.** For `COc1ccc(-c2nc3c(c4c2C[C@H](c2ccccc2)OC4)CN(S(=O)(=O)c2ccc(C)cc2)CC3)c(C)c1`, which Potency [1] is on record?
**A.** inconclusive: 1.5 µM [inhibitor, partial curve]

**Q.** What about the activity, negative = inhibition [1] of the same compound?
**A.** inactive: -0.2% [at 1.12 µM]

**Q.** And the Potency [2]?
**A.** active: 1.69 µM

**Q.** And the Potency [3]?
**A.** active: 1.69 µM and active: 1.9 µM

**Q.** Which activity, negative = inhibition [1] does the source give for `COC(=O)CCC(=O)OC1(C)C(=O)C=C2C=C(C3CC3)N(C3CCCCC3)C=C2C1=O` (stereo not given) here?
**A.** inactive: 0.823% [at 1.12 µM]

**Q.** For `C=CC1=C2C=C(C3CC3)N(C3CC3)C=C2C(=O)C(C)(OC(=O)c2ccco2)C1=O` (stereo not given), which Potency [1] is on record?
**A.** inconclusive: 0.0827 µM [activator, partial curve, poor fit]

**Q.** With `O=P1(O)Oc2c(c(-c3ccccc3)cc3ccccc23)-c2c(-c3ccccc3)cc3ccccc3c2O1` as the compound, how does the Potency [1] read?
**A.** inactive

**Q.** Which Potency [1] does the source give for `CCN1C(=O)N[C@@H](CCc2ccccc2)[C@@H](C(=O)OC)[C@H]1C` here?
**A.** inconclusive: 0.0095 µM [inhibitor, full curve, poor fit]

**Q.** What about the activity, negative = inhibition [1] of the same compound?
**A.** inactive: 2.52% [at 1.12 µM]

**Q.** And the Potency [3]?
**A.** inconclusive: 0.213 µM [inhibitor, partial curve]
